# According to PubChem BioAssay AID686978 (National Center for Advancing Translational Sciences (NCATS), 2013):
# Among all 420,000 compounds or so, about 64,000 (15%) were called active. The inconclusive results got no clear call from the source; some entries with a clear call stand among them for comparison. Calls follow the shape of the dose curve; as a rule, active = well fitted inhibition curve with a large enough effect; inconclusive = small, poorly fitted or top-dose-only effect; inactive = flat fitted curve, though single readings scatter. Potencies of inconclusive entries are left out as doubtful fits.
# Assay: qHTS for Inhibitors of human tyrosyl-DNA phosphodiesterase 1 (TDP1): qHTS in cells in absence of CPT; also: nearly all actives have a fitted effect of over 55% in size
# Conditions: DT40 Tdp1-/- hTDP1 cells, no CPT, ATP luminescence, 48 h; activity change, negative = growth inhibition: at 46.2 µM (top of the series) unless noted
# Method in brief: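 Luminescent ATP content (CellTiter-Glo) served as the growth readout. Knockout chicken DT40 cells expressing human TDP1 were exposed to compounds without camptothecin for a minimum 48 hr at 37 °C.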
# % is scaled to controls: 0 for no effect and ±100 for the full control effect; potency is read from the fitted curve at half-maximal effect; tags tell the direction and shape of the fitted curve.
Compound,Potency,"activity change, negative = growth inhibition"
Cc1c(C(=O)NCc2ccccc2)oc2ccc(S(=O)(=O)N3CCCC3)cc12,"inconclusive [inhibitor, single point]",
O=[N+]([O-])c1ccc2c(c1)C(N1CCOCC1)/C(=C/COc1ccc(F)cc1)O2 (stereo unspecified),"inconclusive [inhibitor, partial curve]",
O=C(COC(=O)c1ccccc1NC(=O)c1ccccc1)c1ccc([N+](=O)[O-])cc1,"inconclusive [inhibitor, partial curve]",
C#CCn1c(/C=C/c2ccc(Cl)cc2)nc2ccccc21,"inconclusive [inhibitor, single point]",
Brc1c(OCCOCCn2cncn2)ccc2ccccc12,active: 25.9 µM,
O=C(NCc1nnc2c3ccccc3c(-c3ccccc3)nn12)c1ccc(Cl)cc1,"inconclusive [inhibitor, single point]",
CC(C)CC(=O)NCC(c1ccc2c(c1)OCO2)N1CCN(c2ccccc2F)CC1 (stereo unspecified),"inconclusive [inhibitor, single point]",
O=C(NCCN1CCCC1)c1ccc2c(c1)N(Cc1cccc(Cl)c1)C(=O)c1ccccc1S2(=O)=O,inactive,
COc1ccc([C@H]2CC(=O)C=C(c3cc(Cl)cc(Cl)c3)C2)cc1,"inconclusive [inhibitor, single point]",
Nc1ccc(CSc2ccccc2)cc1,inactive,
COc1ccc(-c2nc(CS(=O)CC(=O)NC3CCCc4ccccc43)c(C)o2)cc1OC (stereo unspecified),"inconclusive [inhibitor, single point]",
COC(=O)[C@H]1[C@@H]2C[C@H]3c4[nH]c5ccccc5c4CCN3C[C@@H]2CC[C@@H]1O,inactive,
CCN(c1ccc(OC)cc1)S(=O)(=O)c1nnc(NC(=O)COc2ccc(F)cc2)s1,"inconclusive [inhibitor, single point]",
Cc1occc1C(=O)N(C)Cc1nc(-c2ccccc2)no1,,inconclusive: -33.4% [inhibitor]
Cc1ccccc1N(C)C(=O)c1noc2c1COc1ccccc1-2,active: 14.6 µM,
Cc1cccc(-c2nc(SCC(=O)NCC3CCCO3)c3c(=O)n(C)c(=O)n(C)c3n2)c1 (stereo unspecified),inactive,
Cc1ccc(Nc2nc(N)c([N+](=O)[O-])c(N3CCOCC3)n2)cc1C,active: 20.6 µM,
Cc1cccc(C)c1NC(=O)C1c2ccccc2OCC(=O)N1Cc1cccnc1 (stereo unspecified),inactive,
CC(=O)c1ccc(OCC(=O)N(C2CCCCC2)C2CCS(=O)(=O)C2)cc1 (stereo unspecified),inactive,
CCCOc1cccc(CN2CCCCC2c2cccnc2)c1 (stereo unspecified),"inconclusive [inhibitor, partial curve, poor fit]",
CN(C)c1ccc(NC(=O)CN2C(=O)c3ccccc3C2=O)cc1,inactive,
C[C@@H]1CN([C@H](C)CO)C(=O)c2cc(NC(=O)Nc3ccc(C(F)(F)F)cc3)ccc2O[C@H]1CN(C)S(=O)(=O)c1ccccc1,"inconclusive [inhibitor, single point]",
CC(C)(C)C(=O)NC(NC(=S)Nc1sc2c(c1C#N)CCCC2)C(Cl)(Cl)Cl (stereo unspecified),"inconclusive [inhibitor, single point]",

Compound,Potency,"activity change, negative = growth inhibition"
O=c1cc2c(nn1Cc1cccc(Cl)c1)-c1ccccc1CC2,"inconclusive [inhibitor, partial curve, poor fit]",
COc1ccc(C(=O)NCCc2nc3cc([N+](=O)[O-])ccc3n2C)cc1,"inconclusive [inhibitor, single point]",
CCOC(=O)c1ccc(NC(=O)Nc2ccc3snnc3c2)cc1,active: 2.91 µM,
C=Cn1cc[n+](CC(=O)c2ccc(OC)cc2)c1,active: 20.6 µM,
CC(C)C1OC2(C)OC(=N)C1(C#N)C(C#N)(C#N)C2c1ccccc1 (stereo unspecified),"inconclusive [inhibitor, single point]",
O=C1NC(=O)/C(=C\c2ccc(Cl)cc2Cl)N1,inactive,
O=C(Nc1ccccc1-c1ccccc1)c1ccccc1,inactive,
COC(=O)c1ccc(N2C(=O)Nc3ccccc3N2O)cc1,inactive,
CCOC(=O)c1cnc(Nc2ccccc2)nc1C(F)(F)F,"inconclusive [inhibitor, single point]",
Cc1ccc2nc(C(=O)N3CCc4c([nH]c5ccccc45)C3c3ccccn3)cn2c1 (stereo unspecified),active: 20.6 µM,
CCn1c(SCc2ccccc2)nc2ccccc2c1=O,inactive,
COc1ccccc1CCC(=O)OCC(=O)c1c(N)n(CC(C)C)c(=O)n(C)c1=O,inactive,
COc1ccc(N2CCN(C(=O)C3CC(O)CN3S(=O)(=O)c3ccc([N+](=O)[O-])cc3)CC2)cc1 (stereo unspecified),,inconclusive: -37.4% [inhibitor]
CCOc1cc(/C=C/C(=O)OCC(=O)NC2CCS(=O)(=O)C2)ccc1OCc1ccccc1 (stereo unspecified),inactive,
CC1CC(C)CN(S(=O)(=O)c2cccc3cccnc23)C1 (stereo unspecified),"inconclusive [inhibitor, single point]",
CC[C@]12c3[nH]c4ccccc4c3CCN1C(=O)C(CC(=O)NC/C=C(\C)CCC=C(C)C)C[C@@H]2C(=O)N1CCN(C(=O)C2CC2)CC1 (stereo partly specified),active: 14.6 µM,
CC(C)(C)C1CCc2onc(C(=O)Nc3ccc4c(c3)OCO4)c2C1 (stereo unspecified),"inconclusive [inhibitor, partial curve]",
COc1ccc(NS(=O)(=O)c2ccc(Oc3ncccn3)cc2)cc1,"inconclusive [inhibitor, single point]",
O=C(NCc1ccccc1)c1cc(C2CCCCN2C(=O)c2cccs2)on1 (stereo unspecified),"inconclusive [inhibitor, single point]",
Cc1ccc(S(=O)(=O)N(C)CC(=O)OCC(=O)N2CCN(c3ccccc3)CC2)cc1,"inconclusive [inhibitor, single point]",
C/C(CC(=O)Nc1ccc(C)c(Cl)c1)=N\NC(=O)c1cccc(O)c1,inactive,
COc1cc2cc(C)c(Br)c(OC)c2cc1OC,"inconclusive [inhibitor, single point]",
CCOc1ccc(-c2noc(CSc3nnc(-c4ccccc4)n3-c3ccccc3)n2)cc1,active: 11.6 µM,
